Laboratory results as given in PubChem BioAssay AID1745853 (National Center for Advancing Translational Sciences (NCATS), 2022).
Some of the results follow. These are further read-outs of the screen, such as a control signal, another cell line or another target. No call is given for them. Peptide text beside a SMILES is read from it.

Columns and labels:
Assay in all cases: Primary Screen for Target Class Profiling of Small Molecule Inhibitors of Methyltransferases
[1] = molecular target: Glycine N-methyltransferase (Homo sapiens) (UniProt Q14749); conditions: purified enzyme, MTase-Glo SAH luminescence; measured here: GNMT inhibition; at 40 µM; stronger effect = lower value
Source text: (§1) PI: Matthew D. Hall Ph.D. and Quinlin M. Hanson Ph.D.
(§2) National Center for Advancing Translational Sciences (NCATS)
(§3) National Institute of Health (NIH), Rockville, MD
(§4) Target class profiling (TCP) is a chemical biology approach amenable to investigating understudied biological targets. TCP is achieved by developing a generalizable assay platform and applying it to screen a curated set of compound libraries against representative members of a target class. Small molecule methyltransferases (SMMTase) are a subclass of methyltransferase that act on metabolites to modulate signaling pathways, metabolize xenobiotics, or balance the available methyl pool. We screened four curated libraries totaling 27,574 unique compounds against the SMMTases nicotinamide N-methyltransferase (NNMT), phenylethanolamine N-methyltransferase (PNMT), histamine N-methyltransferase (HNMT), glycine N-methyltransferase (GNMT), catechol O-methyltransferase (COMT), and guanidinoacetate N-methyltransferase (GAMT). The data generated by this TCP can be leveraged for informed tool molecule development. For example, in the associated publication we identified a chemotype of HNMT-selective inhibitors. Additionally, we identified a putative SMMTase-selective inhibitor with potential as a tool molecule for studying broader methyltransferase biology.
(§5) High-through put screening assays were developed at the National Center for Advancing Translational Science (NCATS) for the enzymes NNMT, PNMT, HNMT, GNMT, COMT, and GAMT. Enzymatic activity was measured as a function of SAM cofactor conversion using the MTase Glo kit (Promega) for all enzymes. All assays were performed in 1536-well format with substrates and SAM concentrations at KM values. Enzyme concentration and assay timing were optimized for 10-20% SAM conversion. Initial screening of 27,574 compounds was done as single-point assays using the highest compound concentration (40 uM). […] These compounds were replated in 11-point dose response and assayed against NNMT, PNMT, HNMT, GNMT, COMT, GAMT, and a counter-assay. The IC50 and efficacy (maximal response) values were determined for each dose-response curve. These values are also accounted for in the area under the curve (AUC) values.
(§6) PROTOCOL TABLE (as described by Inglese J, Shamu CE and Guy RK. 2007)
(§7) SEQUENCE No. (e.g., 1, 2, 3, etc.); […] (e.g., Cells, Incubation, Reagent, etc.); VALUE; DESCRIPTION.
(§8) 1; Reagent; 2 uL; SMMTase Enzyme (2x) in reaction buffer, columns 1- 48.
(§9) 2; Reagent; 1 uL; SAM (4x) in reaction buffer, columns 1-48.
(§10) 3; Controls; 23 nL; DMSO in column 4; sinefungin in DMSO (0 uM - 40 uM) in 7-point 1:2 dilution series (n = 2) in column 2.
(§11) 4; Compounds; 23 nL; Columns 5-48.
(§12) 5; Reagent; 1 uL; Substrate (4x) in reaction buffer, columns 2-48.
(§13) 6; Time; 20-30 min; Incubation.
(§14) 7; Reagent; 1 uL; MTase-Glo reagent (5X), columns 1-48.
(§15) 8; Time; 30 min; Incubation.
(§16) 9; Reagent; 5 uL; MTase-Glo Detection reagent, columns 1-48.
(§17) 10; Time; 30 min; Incubation, luminescence evolution.
(§18) 11; Detection; Luminescence; ViewLux uHTS Microplate Imager (PerkinElmer).
(§19) NOTES (numbers refer to Sequence numbers above)
(§20) 1, 2, 5. White Medium Binding Greiner 1536-well plates (Cat #789175-F, Greiner Bio-One, Monroe, NC); Reaction buffer: 50 mM Tris, pH 8.0, 3 mM MgCl2, 1 mM EDTA, 50 mM NaCl, 1 mM DTT, and 0.1 mg/mL BSA. Evaporation was prevented by covering assay plates with metal lids containing holes to allow gas diffusion.
(§21) 1. Six SMMTase were profiled: HNMT, GNMT, PNMT, COMT, NNMT, GAMT
(§22) 5. The corresponding substrate was used for each enzyme: HNMT - 5.3 uM Histamine; GNMT - >500 uM Glycine; PNMT - 16.2 uM Norephinephrine; COMT - 13.7 uM Norephinephrine; NNMT - 3.8 uM Nicotinamide; GAMT - 2.5 uM Guanidinoacetate.6, 8, 10. Room temperature
(§23) 6. Final reaction conditions: 10 nM COMT, 5 uM SAM, 15 uM norepinephrine, 50 mM Tris, pH 8.0, 3 mM MgCl2, 1 mM EDTA, 50 mM NaCl, 1 mM DTT, and 0.1 mg/mL BSA; refer to tables 2 and S1 for specific timing.
8. […]

[2] = molecular target: Guanidinoacetate N-methyltransferase (Homo sapiens) (UniProt Q14353); conditions: purified enzyme, MTase-Glo SAH luminescence; measured here: GAMT inhibition; at 40 µM; stronger effect = lower value
Source text: as §1, §2, §3, §4, §5, §6, §7, §8, §9, §10, §11, §12, §13, §14, §15, §16, §17, §18, §19, §20, §21, §22, §23
8. […]

[3] = molecular target: Histamine N-methyltransferase (Homo sapiens) (UniProt P50135); conditions: purified enzyme, MTase-Glo SAH luminescence; measured here: HNMT inhibition; at 40 µM; stronger effect = lower value
Source text: as §1, §2, §3, §4, §5, §6, §7, §8, §9, §10, §11, §12, §13, §14, §15, §16, §17, §18, §19, §20, §21, §22, §23
8. […]

[4] = molecular target: Nicotinamide N-methyltransferase (Homo sapiens) (UniProt P40261); conditions: purified enzyme, MTase-Glo SAH luminescence; measured here: NNMT inhibition; at 40 µM; stronger effect = lower value
Source text: as §1, §2, §3, §4, §5, §6, §7, §8, §9, §10, §11, §12, §13, §14, §15, §16, §17, §18, §19, §20, §21, §22, §23
8. […]

[5] = molecular target: Phenylethanolamine N-methyltransferase (Homo sapiens) (UniProt P11086); conditions: purified enzyme, MTase-Glo SAH luminescence; measured here: PNMT inhibition; at 40 µM; stronger effect = lower value
Source text: as §1, §2, §3, §4, §5, §6, §7, §8, §9, §10, §11, §12, §13, §14, §15, §16, §17, §18, §19, §20, §21, §22, §23
8. […]
% is set by controls: 0 for no effect and ±100 for the full control effect.

SMILES	activity change, negative = inhibition [1]	activity change, negative = inhibition [2]	activity change, negative = inhibition [3]	activity change, negative = inhibition [4]	activity change, negative = inhibition [5]
Cc1ccc(CCNC(=O)c2cc3n(n2)CC(C)(C(=O)NCc2ccc(F)cc2)N(C)C3=O)cc1 (stereo not given)	2.74%	0%	1.36%	4.09%	-1.92%
COc1ccc(-c2cc3n(n2)CC(C)(C(=O)NC2CCCCC2)N(C(C)c2ccccc2)C3=O)cc1 (stereo not given)	-5.56%	-0.8%	-1.53%	-2.93%	-4.11%
CC1(C(=O)NC2CCCCC2)Cn2c(cc3sccc32)C(=O)N1CCN1CCCCCC1 (stereo not given)	6.43%	-7.47%	-16.3%	1.44%	2.35%
O=C(CCc1nnc2n(Cc3ccccc3)c(=O)c3ccccc3n12)N1CCN(C2CCCCC2)CC1	-12%	4.63%	-12.1%	2.99%	-5.02%
Cn1nc(C2CCCNC2)c2c(C(=O)NC3CC3)cc(C3CC3)nc21 (stereo not given)	-5.6%	-10.7%	-4.33%	-12.3%	3.52%
O=C1CCN(C(=O)C2(c3ccccc3)CC2)CCCCCCN1	2.39%	0.434%	4.28%	-1.42%	4.31%
Cc1ccc(Cn2c(=O)c3ccccc3n3c(=O)n(CC(=O)Nc4cccc(F)c4)nc23)cc1	5.82%	0%	9.42%	3.21%	4.7%
COCC1CN(Cc2ccc(C(C)C)cc2)CC12CCNCC2 (stereo not given)	-2.27%	0.661%	-8.81%	-2.14%	4.96%
COc1ccc(C(=O)N2CCC(c3ncc(C)n3C(C)C)C2)cc1 (stereo not given)	-2.38%	-1.32%	-4.1%	-7.43%	-2.1%
NC(=O)c1cccc(-c2cc(O)cc(OC(=O)NC3CCCCC3)c2)c1	-12.6%	-8.04%	10.4%	-12.3%	2.63%
N[C@H](CO)C(=O)O	3.77%	12.3%	5.46%	-0.498%	9.49%
O=C(NCCNc1cccnc1)C1CCC(=O)N(C2CC2)C1 (stereo not given)	-48.9%	-29.8%	-4.55%	-6.47%	-33.5%
O=C(O)Cc1cccc(-c2cc(CCCCCCc3ccc(O[C@H]4O[C@H](CO)[C@@H](O)[C@H](O)[C@@H]4O)c(-c4cccc(CC(=O)O)c4)c3)ccc2O[C@H]2O[C@H](CO)[C@@H](O)[C@H](O)[C@@H]2O)c1	6.89%	4.12%	11.5%	-1.9%	7.5%
COc1ccc(N2CCN(S(=O)(=O)c3ccc4[nH]c(=O)[nH]c4c3)CC2)cc1	4.42%	1.42%	0.182%	-5.26%	2.42%
Cn1c(=O)c2ccc(C(=O)NC3CCCCC3)cc2n2c(=O)n(CC(=O)NC3CCCCC3)nc12	-2.06%	-2.81%	-2.1%	-1.28%	-5.64%
CC(C)(Oc1nn(CCN2CCOCC2)c2ccccc12)C(=O)NCc1ccncc1	-2.56%	-8.89%	-0.437%	-10.5%	-7.41%
CC(C)C1NC(=O)CNC(=O)C2CCCN2C(=O)C(Cc2c[nH]c3ccccc23)NC(=O)CNC(=O)C(Cc2ccc(O)cc2)NC(=O)CNC1=O (stereo not given) (cyclo(GVGYGWP); configuration not given here)	7.97%	6.78%	13.3%	-7.08%	9.4%
c1ccc(CCN(Cc2ccccc2)[C@H]2C[C@H]3CCOC[C@@]3(c3ccccc3)C2)cc1	-3.12%	-0.255%	-2.42%	-3.41%	-2.85%
COCCCNC(=O)C1(C)Cn2nc(-c3ccccc3)cc2C(=O)N1c1ccc(Cl)cc1C (stereo not given)	2.32%	3.31%	3.07%	2.94%	-0.263%
NC(Cc1cccc(-c2ccccc2CP(=O)(O)O)c1)C(=O)O (stereo not given)	3.02%	10.4%	4.12%	0.599%	6.8%
CNC(=O)C1(N2CCC[C@H]2C(=O)N(C)Cc2cccnc2)CCOCC1	-3.84%	-10.9%	-1.11%	-11.1%	6.58%
CCOc1ccc(C2c3cccn3-c3sc4c(c3CN2C(=O)Nc2ccc(F)cc2)CCCC4)cc1 (stereo not given)	0.531%	1.18%	3.48%	6.26%	9.82%
COCCNc1nc2c(S(=O)(=O)c3ccccc3)nnn2c2ccc(Cl)cc12	-6.75%	0.129%	5.89%	-1.74%	-1.56%
COc1ccccc1CNC(=O)c1ccc2c(=O)nc3c(-c4cccc(F)c4)n[nH]n3c2c1	-9.13%	4.41%	-4.88%	-10.3%	-4.78%
C=C1C(O)C(OC(=O)c2ccccc2)C2C(C)(C(=O)O)CCCC2(C)C1CC/C(C)=C\CO (stereo not given)	-6.18%	6.96%	2.57%	-12.1%	-0.145%
CC(C)c1noc(-c2cn(C3CCN(C(=O)c4ccc(Cl)s4)C3)nn2)n1 (stereo not given)	-5.97%	-4.6%	-0.307%	-13%	-8.19%
Cn1cc(CN2CCN(c3ccc(C#N)cn3)CC2)c(-c2ccccc2)n1	-4.16%	-0.002%	0.053%	-9.07%	-3.41%
CN(C)C[C@@H]1CN(c2ccncn2)C[C@H]1NC(=O)COc1ccccc1	-5.09%	-1.09%	-1.58%	-2.84%	-2.5%
CC(C)C1c2cccn2CCN1C(=O)Nc1ccc(F)c(Cl)c1 (stereo not given)	12.1%	1.26%	6.58%	2.23%	9.29%
